Measured values taken from PubChem BioAssay AID624417 (National Center for Advancing Translational Sciences (NCATS), 2012).
Among all 410,000 compounds or so, about 6,400 (1.6%) were called active. The inconclusive results got no clear call from the source; some entries with a clear call stand among them for comparison. The call rests on the fitted dose curve; in most records, active means well fitted inhibition curve with a large enough effect; inconclusive means small, poorly fitted or top-dose-only effect; inactive means no such curve, though single readings can be large or run the other way. No potency is given beside an inconclusive call; the fits are too rough.

The compounds below were run against Glucagon-like peptide 1 receptor (Homo sapiens) (UniProt P43220) (assay: qHTS of GLP-1 Receptor Inverse Agonists (Inhibition Mode)). Details: HEK293 GLP-1R CRE-luciferase, luminescence, 24 h, GLP-1R form is constitutively active; activity change, negative = inhibition: at 38.3 µM (top of the series) unless noted.
Sequence of UniProt P43220 (P43220 whole entry, looked up): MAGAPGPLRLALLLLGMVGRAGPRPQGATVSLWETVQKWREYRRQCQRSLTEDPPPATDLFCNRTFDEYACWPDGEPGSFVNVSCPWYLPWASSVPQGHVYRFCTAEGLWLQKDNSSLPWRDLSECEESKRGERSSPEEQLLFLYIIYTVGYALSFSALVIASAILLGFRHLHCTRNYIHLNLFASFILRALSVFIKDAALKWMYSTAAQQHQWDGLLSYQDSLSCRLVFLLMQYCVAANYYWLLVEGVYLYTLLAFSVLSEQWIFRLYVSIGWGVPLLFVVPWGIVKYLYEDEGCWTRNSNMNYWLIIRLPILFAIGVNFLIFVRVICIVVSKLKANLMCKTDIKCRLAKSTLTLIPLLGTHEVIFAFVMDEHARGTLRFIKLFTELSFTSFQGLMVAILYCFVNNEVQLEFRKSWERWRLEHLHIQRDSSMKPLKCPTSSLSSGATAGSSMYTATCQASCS
Excerpt: The overall goal of this project was to develop a novel assay for discovering small molecule ligands for class B1 G protein-coupled receptors (GPCRs). Very few agonists (or inverse agonists in inhibition mode) with generally weak activity for this entire group of physiologically important receptors are known to date. To establish proof-of-principle that this critical bottleneck can be overcome with a suitable screening approach, our studies focused on the class B1 receptor for glucagon-like peptide-1 (GLP-1R), a potential therapeutic target for diabetes and neurodegenerative disease. The assay was developed using a cell-based functional readout. Toward this goal, stably transfected HEK293 cell clones were established that co-express (i) a cAMP-responsive luciferase reporter gene, and (ii) constitutively active GLP-1R that upon ligand interaction inhibit (inverse agonists) the luciferase activity. In addition, two control cell lines were developed: (i) one that express only the cAMP-responsive reporter gene to enable initial exclusion of GLP-1R independent effects of candidate probes; and (ii) one with the reported gene cloned with another constitutively active orphan receptor GPR119 to enable exclusion of GLP-1R independent inhibitor effects of candidate inverse agonists. To that end, this assay was optimized for 1536-well format and screened against the MLSMR. […] NIH Molecular Libraries Probe Production Network [MLPCN] NIH Chemical Genomics Center [NCGC] Grant: NS064851 PI Name: Martin Beinborn, Tufts Medical Center
Six ul of cell suspension (200 cells/uL in DMEM + 10% Nu serum + 1% pen-strep) is dispensed in a white solid 1536-well plate. The plates are incubated for 12 hours at 37 deg C at 5% CO2 followed by addition of 23 nL compounds. After 24 hr incubation at 37 deg C and 5% CO2, 3 uL of luciferase assay detection reagent is added. A luminescence read is obtained on the PerkinElmer Viewlux after 12 min incubation at room temperature.
Further: nearly all actives have a fitted effect of over 55% in size.
On the % scale 0 is the no-effect control and ±100 the full control effect; potency means the concentration at half of the fitted maximal effect; tags describe the fitted curve by direction and shape.

Row | Compound | Potency | activity change, negative = inhibition
1 | CCN1CCN(CCCNC(=O)c2ccc3c(c2)sc2nc(-c4ccc(OC)cc4)cn23)CC1 | inconclusive [inhibitor, full curve, poor fit] | –
2 | COc1cc(Cl)cc(C(c2c(C(=O)O)[nH]c3ccccc23)c2c(C(=O)O)[nH]c3ccccc23)c1O | – | inactive: -7.11%
3 | CCN(CC)S(=O)(=O)c1ccc(C)c(NC(=S)NC2CCCCC2)c1 | inconclusive [inhibitor, partial curve, poor fit] | –
4 | CCOc1ccc(Cl)cc1-c1cc(C(=O)NCc2ccccc2OC)[nH]n1 | inconclusive [inhibitor, partial curve] | –
5 | Clc1cnc(Nc2cccnc2)c(Cl)c1 | – | inactive: 8.58%
6 | COc1ccc(Nc2ccc(S(=O)(=O)N3CCCCC3)cc2[N+](=O)[O-])cc1Cl | inconclusive [inhibitor, single point] | –
7 | C=CCN([C@@H](CC(C)C)C(=O)OC)S(=O)(=O)N(CC=C)[C@@H](CC(C)C)C(=O)OC | inconclusive [inhibitor, single point] | –
8 | Cc1ccc(N2C(=O)N3[C@H]4c5ccccc5OC[C@@H]4[C@@H](c4ccccc4)[C@@]3(C)C2=O)cc1 | inconclusive [inhibitor, partial curve] | –
9 | CC1CCc2cc(F)ccc2N1C(=O)c1cccs1 (configuration not stated) | inconclusive [inhibitor, single point] | –
10 | CCN(CC)C(=O)C1CCCN(c2ncnc3c2cnn3-c2ccc(Cl)cc2)C1 (configuration not stated) | inconclusive [inhibitor, partial curve, poor fit] | –
11 | CCOc1cccc2sc(NC(=O)CCS(=O)(=O)c3ccccc3)nc12 | – | inactive: -1.48%
12 | COC(=O)c1sccc1NC(=O)CSc1ccccc1NS(=O)(=O)c1ccccc1Cl | inconclusive [inhibitor, single point] | –
13 | O=c1c(S(=O)(=O)c2ccccc2)cn(Cc2ccc(F)cc2)c2cc(N3CCCCC3)c(F)cc12 | – | inactive: 7.28%
14 | CNC(=S)N(CCc1cccc(C)c1)Cc1cc2cc(OC)c(OC)cc2[nH]c1=O | – | inactive: 15.8%
15 | Cc1ccc(C)c(NC(=O)c2cc(S(=O)(=O)NCCC3=CCCCC3)ccc2F)c1 | inconclusive [inhibitor, partial curve, poor fit] | –
16 | Cc1cccc(N(C)C(=O)c2cc(S(=O)(=O)N3CCc4ccccc43)cn2C)c1 | inconclusive [inhibitor, partial curve, poor fit] | –
17 | CCOc1ccc(-c2cc(C(=O)Nc3ccc(C)c(NS(C)(=O)=O)c3)[nH]n2)c(C)c1 | active: 7.08 µM | –
18 | O=C(CN1CCN(c2ccccn2)CC1)N1c2ccccc2CCc2ccccc21 | inconclusive [inhibitor, partial curve] | –
19 | COc1ccc(-c2cc(C(=O)Nc3cccc(C(C)=O)c3)no2)cc1 | – | inactive: 4.92%
20 | Cc1ccc(N2CC(C(=O)N3CCC(C(=O)Nc4ccc(Br)cc4)CC3)CC2=O)cc1 (configuration not stated) | inconclusive [inhibitor, single point] | –
21 | Cc1ccc(OCCc2csc(N)n2)cc1 | – | inactive: -8.24%

Row | Compound | Potency | activity change, negative = inhibition
22 | CCOC(=O)c1c(NC(NC(C)=O)C(Cl)(Cl)Cl)sc(C(C)=O)c1C (configuration not stated) | inconclusive [inhibitor, single point] | –
23 | Cc1ccc(CC(=O)NCc2ccc(F)cc2)cc1 | inconclusive [inhibitor, partial curve, poor fit] | –
24 | O=c1c2cnn(-c3ccccc3)c2nc(-c2cccs2)n1-c1ccc(Cl)cc1 | – | inactive: 2.85%
25 | Cc1ccc(Nc2nc3ccccc3c3nncn23)cc1C | – | inactive: 13.1%
26 | COC(=O)Cn1c2c(c3cc(C)ccc31)CCCC2NC(C)c1ccccc1 (configuration not stated) | inconclusive [inhibitor, single point] | –
27 | Cc1nc(-c2coc3cc(O)c(C)cc3c2=O)cs1 | inconclusive [inhibitor, single point] | –
28 | CC(=O)N1CCCc2cc(S(=O)(=O)N(C)CC(=O)Nc3ccc(Cl)cc3C)ccc21 | inconclusive [inhibitor, partial curve, poor fit] | –
29 | COc1ccc(OC)c(-c2csc(NC(=O)Cc3ccc(F)cc3)n2)c1 | inconclusive [inhibitor, single point] | –
30 | CC(C)CC(CC(C)C)=NNC(=O)c1ccc2c(c1)OCO2 | inconclusive [inhibitor, single point] | –
31 | Cc1cc(C)c(C)c(S(=O)(=O)N2CCC(C(=O)Nc3ccc(S(=O)(=O)N4CCOCC4)cc3)CC2)c1C | inconclusive [inhibitor, partial curve, poor fit] | –
32 | CCc1noc(C)c1C(=O)Nc1cccc(S(=O)(=O)N(C)c2ccccc2)c1 | inconclusive [inhibitor, single point] | –
33 | COc1ccc(NC(=O)c2ccc(COCC(F)(F)F)cc2)cc1OC | – | inactive: 1.22%
34 | Cc1ccc(-c2noc(CCC(=O)NC3CCCc4ccccc43)n2)cc1 (configuration not stated) | inconclusive [inhibitor, single point] | –
35 | Fc1ccc2cnc(-c3ccccc3)c(-c3ccc(C(F)(F)F)cc3)c2c1 | active: 12.6 µM | –
36 | O=C(NCCCn1ccnc1)c1cc(-c2cccs2)on1 | – | inactive: 180%
37 | CCOC(=O)/C(=N\Nc1ccccc1)S(=O)(=O)c1ccccc1 | inconclusive [inhibitor, single point] | –
38 | COc1ccc(-c2cc3nc(-c4ccccc4)cc(N4CCN(C(C)=O)CC4)n3n2)cc1 | inconclusive [inhibitor, single point] | –
39 | C(=N\Nc1nc2ccccc2[nH]1)/c1ccccc1 | – | inactive: -11.4%
40 | CCOC(=O)c1c(CSc2cccs2)n(C)c2cc(Br)c(O)c(CN(C)C)c12 | inconclusive [inhibitor, single point] | –
41 | Cc1cc(=O)oc2cc(NC(=O)C(C)Oc3cccc(Cl)c3)ccc12 (configuration not stated) | inconclusive [inhibitor, single point] | –
42 | ClC(Cl)(c1nnnn1-c1ccccc1)c1nnnn1-c1ccccc1 | inconclusive [inhibitor, single point] | –
